The test system of one assay is HSkMC. Put plainly: cytotoxicity call (relative viability < 0.9). To be noted: 10 µM.
For a further assay, the system named is S. aureus RN4220. Put plainly: growth inhibition call (relative growth <= 0.2). The conditions noted are these: 50 µM.

This is one part of the list.

As to `N=C1CCCN1Cc1[nH]c(=O)[nH]c(=O)c1Cl`, the cytotoxicity call in the assay on HSkMC was “inactive”. Moreover, in the assay with S. aureus RN4220, the growth inhibition call is “inactive”.
Turning to `C[C@@H]1CN([C@@H](C)CO)C(=O)c2cccc(NS(C)(=O)=O)c2O[C@H]1CN(C)Cc1ccc2c(c1)OCO2`, the cytotoxicity call with HSkMC is “inactive”. In the assay with S. aureus RN4220, the growth inhibition call was “inactive”.
As for `C[C@@H]1CN([C@H](C)CO)C(=O)c2cccc(NS(C)(=O)=O)c2O[C@@H]1CN(C)S(=O)(=O)c1cccs1`, the cytotoxicity call with HSkMC is “inactive”. Further, the growth inhibition call with S. aureus RN4220 is “inactive”.
For the molecule `C=CCC[C@@H](Cc1ccc(F)cc1)C(=O)OC[C@@H](Cc1c[nH]c2ccccc12)NC(=O)[C@@H](CC=C)CC(=O)N[C@@H](CO)Cc1ccccc1`, in the assay on HSkMC, the cytotoxicity call is “inactive”. Moreover, the growth inhibition call in the assay with S. aureus RN4220 is “inactive”.
In the case of `CC(C)NC(=O)Nc1ccc2c(c1)CC(=O)N([C@@H](C)CO)C[C@H](C)[C@@H](CN(C)S(=O)(=O)c1ccccc1)O2`, the cytotoxicity call in the assay with HSkMC is “inactive”. Further, the growth inhibition call in the assay on S. aureus RN4220 is “inactive”.
For `CC(C)NC(=O)N(C)C[C@@H]1OCCCC[C@@H](C)Oc2ccc(NC(=O)C3CCCCC3)cc2C(=O)N([C@H](C)CO)C[C@@H]1C`, in the assay with HSkMC, the cytotoxicity call is “inactive”. The growth inhibition call with S. aureus RN4220 was “inactive”.
Regarding `Cc1ccc(Nc2c(-c3ccccc3)nc3ccccn23)cc1`, in the assay with HSkMC, the cytotoxicity call was “inactive”. Further, in the assay with S. aureus RN4220, the growth inhibition call is “inactive”.
For the molecule `O=C(C[C@@H]1C[C@H]2c3cc(NC(=O)c4ccc5c(c4)OCO5)ccc3O[C@H]2[C@H](CO)O1)NCc1ccc(Oc2ccccc2)cc1`, in the assay with HSkMC, the cytotoxicity call is “inactive”. In the assay with S. aureus RN4220, the growth inhibition call was “inactive”.
Take `C[C@@H]1CCCCO[C@@H](CN(C)S(=O)(=O)c2ccccc2)[C@H](C)CN([C@@H](C)CO)C(=O)c2cc(NS(=O)(=O)c3ccc(Cl)cc3)ccc2O1`: the cytotoxicity call in the assay with HSkMC is “inactive”. The growth inhibition call in the assay on S. aureus RN4220 is “inactive”.
For `O=C(C[C@H]1C[C@@H]2c3cc(NC(=O)Nc4ccc(C(F)(F)F)cc4)ccc3O[C@@H]2[C@@H](CO)O1)NC1CCCCC1`, in the assay with HSkMC, the cytotoxicity call was “inactive”. The growth inhibition call with S. aureus RN4220 was “inactive”.
Turning to `CNCc1cc(C)nn1C`, in the assay with HSkMC, the cytotoxicity call is “inactive”. For the same molecule, in the assay on S. aureus RN4220, the growth inhibition call was “inactive”.
As to `Cc1noc(C)c1NC(=O)N(C)C[C@@H]1Oc2ccc(NS(=O)(=O)c3ccccc3)cc2CC(=O)N([C@H](C)CO)C[C@@H]1C`, the cytotoxicity call with HSkMC is “inactive”. Further, in the assay with S. aureus RN4220, the growth inhibition call is “inactive”.
As to `C[C@H](CO)N1C[C@H](C)[C@@H](CN(C)Cc2ccc(C(=O)Nc3ccccc3N)cc2)Oc2ccc(NC(=O)Nc3cccc4ccccc34)cc2C1=O`, in the assay with HSkMC, the cytotoxicity call is “inactive”. Also, the growth inhibition call in the assay on S. aureus RN4220 is “inactive”.
Turning to `O=C(C[C@H]1C[C@@H]2c3cc(NS(=O)(=O)c4ccc(F)cc4)ccc3O[C@@H]2[C@H](CO)O1)NCc1ccccc1`, in the assay on HSkMC, the cytotoxicity call was “inactive”. Further, the growth inhibition call in the assay with S. aureus RN4220 is “inactive”.
As to `COc1ccccc1-c1cccc(-c2nc(C(=O)N3CCCCC3)cc3c2[C@@H](CCO)N([S@](=O)C(C)(C)C)C3)c1`, the cytotoxicity call in the assay with HSkMC is “inactive”. Besides, the growth inhibition call with S. aureus RN4220 was “inactive”.
With `O=c1ccc(-c2ccncc2)n[nH]1`, the cytotoxicity call in the assay with HSkMC is “inactive”. Moreover, the growth inhibition call with S. aureus RN4220 is “inactive”.
`CC(C)NC(=O)Nc1ccc2c(c1)C(=O)N([C@H](C)CO)C[C@H](C)[C@@H](CN(C)CC1CCCCC1)OCCCC[C@H](C)O2`: in the assay on HSkMC, the cytotoxicity call is “inactive”. The growth inhibition call with S. aureus RN4220 is “inactive”.
For the molecule `C[C@@H]1CN([C@@H](C)CO)C(=O)c2cc(NS(=O)(=O)c3cn(C)cn3)ccc2O[C@@H]1CN(C)S(=O)(=O)c1ccc(Cl)cc1`, the cytotoxicity call in the assay on HSkMC was “inactive”. For the same molecule, the growth inhibition call in the assay with S. aureus RN4220 is “inactive”.
On to `COc1ccc(C#Cc2cccc(-c3nc(C(=O)N4CCN(Cc5ccccc5)CC4)cc4c3[C@@H](CCO)N(S(=O)C(C)(C)C)C4)c2)cc1OC` (some centres not stated), for which the cytotoxicity call in the assay on HSkMC is “inactive”. In the assay on S. aureus RN4220, the growth inhibition call is “inactive”.
For `COC(=O)c1c2oc(c1C(=O)OC)C(=O)N[C@@H](Cc1ccccc1)Cn1cc(nn1)[C@H](Cc1ccccc1)NC(=O)N[C@@H](CO)CC2`, in the assay on HSkMC, the cytotoxicity call is “inactive”. The growth inhibition call in the assay on S. aureus RN4220 was “inactive”.
With `C=CCC[C@H](Cc1ccc(F)cc1)C(=O)O[C@H](CNC(=O)[C@H](CC=C)CC(=O)N(CCO)Cc1ccccc1)c1ccccc1`, the cytotoxicity call with HSkMC is “inactive”. Further, the growth inhibition call with S. aureus RN4220 is “inactive”.
In the case of `C[C@H]1CN([C@@H](C)CO)S(=O)(=O)c2ccc(C#CC3CC3)cc2O[C@@H]1CN(C)Cc1ccccc1F`, the cytotoxicity call in the assay with HSkMC was “inactive”. The growth inhibition call in the assay on S. aureus RN4220 is “inactive”.
Consider `COc1ccc(CN(C)C[C@H]2OCCCC[C@@H](C)Oc3ccc(NS(=O)(=O)c4ccc(C)cc4)cc3C(=O)N([C@@H](C)CO)C[C@@H]2C)cc1`, for which the cytotoxicity call with HSkMC is “inactive”. In addition, the growth inhibition call in the assay on S. aureus RN4220 is “inactive”.
Take `Cc1noc(C)c1NC(=O)Nc1ccc2c(c1)CC(=O)N([C@@H](C)CO)C[C@@H](C)[C@H](CN(C)Cc1ccc(C(F)(F)F)cc1)O2`: the cytotoxicity call with HSkMC is “inactive”. For the same molecule, the growth inhibition call in the assay on S. aureus RN4220 was “inactive”.
In the case of `O=C(c1ccccc1)N1Cc2ccccc2[C@H]2OC(c3ccc(OCCCO)cc3)=N[C@@]2(Cc2ccccc2)C1=O`, the cytotoxicity call in the assay on HSkMC was “inactive”. For the same molecule, the growth inhibition call in the assay with S. aureus RN4220 was “inactive”.
For `CC(C)NC(=O)[C@@H]1c2ccccc2C(=O)N(Cc2cc(F)cc(C(F)(F)F)c2)[C@H]1c1ccc(CO)cc1`, in the assay with HSkMC, the cytotoxicity call is “inactive”. Further, in the assay on S. aureus RN4220, the growth inhibition call is “inactive”.
As to `C[C@@H]1CN([C@H](C)CO)C(=O)c2cc(NC(=O)Nc3ccccc3)ccc2O[C@@H]1CN(C)Cc1ccc(C(=O)Nc2ccccc2N)cc1`, the cytotoxicity call in the assay on HSkMC was “inactive”. The growth inhibition call in the assay with S. aureus RN4220 is “inactive”.
On to `O=C(C[C@H]1C[C@H]2c3cc(NC(=O)Nc4ccc(C(F)(F)F)cc4)ccc3O[C@H]2[C@H](CO)O1)NCCc1ccccc1`, for which the cytotoxicity call with HSkMC is “inactive”. Moreover, the growth inhibition call in the assay with S. aureus RN4220 was “inactive”.
With `COc1ccnc(N)c1`, in the assay on HSkMC, the cytotoxicity call was “inactive”. Further, in the assay with S. aureus RN4220, the growth inhibition call is “inactive”.
As for `Cc1noc(C)c1S(=O)(=O)Nc1ccc2c(c1)C(=O)N([C@@H](C)CO)C[C@@H](C)[C@H](CN(C)Cc1ccc(C(F)(F)F)cc1)OCCCC[C@@H](C)O2`, the cytotoxicity call in the assay on HSkMC (human skeletal muscle cells) is “inactive”. Also, the growth inhibition call in the assay on S. aureus RN4220 was “inactive”.
On to `COc1ccc(S(=O)(=O)N(C)C[C@H]2Oc3ccc(NC(=O)Nc4cccc5ccccc45)cc3C(=O)N([C@H](C)CO)C[C@H]2C)cc1`, for which the cytotoxicity call in the assay with HSkMC is “inactive”. Further, the growth inhibition call in the assay with S. aureus RN4220 was “inactive”.
